# Assay results reported in PubChem BioAssay AID588855 (National Center for Advancing Translational Sciences (NCATS), 2011).
# Hit rate of the full screen: of about 410,000 compounds, about 5,000 (1.2%) were called active. Inconclusive means that the source gave no clear call. Such entries were picked first, then a sample of the others. Calls come from the whole dose curve; as a rule, active = well fitted inhibition curve with a large enough effect; inconclusive = small, poorly fitted or top-dose-only effect; inactive = no such curve, though single readings can be large or run the other way. A potency beside an inconclusive call is a rough fit, not a confirmed value.
# Test: qHTS for Inhibitors of TGF-b; note: nearly all actives have a fitted effect of over 65% in size
# Details: HepG2 CAGA-GFP TGF-b/SMAD3 reporter, GFP fluorescence, 18 h, TGF-beta stimulated, 500 pg/mL final; series mostly up to 46.1 µM
# Procedure, shortened: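 Cell-based qHTS in HEPG2 carrying a CAGA-GFP Smad reporter; compounds added before 500 pg/mL final TGF-beta, 18 h incubation at 37 degrees C, GFP fluorescence quantified per cell by imaging cytometry.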
# Potency is the fitted concentration of half-maximal effect; tags give direction and shape of the fitted curve.
row,Structure (SMILES),Potency
1,Cc1ccc(Oc2ccccc2/C=C2\SC(=O)N(C)C2=O)cc1,inactive
2,NC(=O)C1CC(=O)N(c2ccc(OCc3ccc(Cl)cc3Cl)cc2)C1 (stereo not drawn),inactive
3,Cc1nc(Oc2ccccc2C)c2oc3ccccc3c2n1,inactive
4,COC(=O)Nc1nc(-c2ccccc2)c(C(=O)c2ccc(Cl)cc2)s1,"inconclusive: 7.08 µM [inhibitor, partial curve, poor fit]"
5,CCOc1ccccc1N1CCN(C(=O)c2c(Cl)cnn2C)CC1,inactive
6,O=c1[nH]c(=O)c2nnc(N/N=C\c3ccc(O)cc3)nc2[nH]1,"inconclusive: 15.8 µM [inhibitor, single point]"
7,Cc1ncsc1CCC(=O)N1CCCC(C(=O)c2cccc(Cl)c2)C1 (stereo not drawn),"inconclusive: 12.6 µM [inhibitor, partial curve, poor fit]"
8,CC1(C)CC(NC(=O)C(=O)NCCc2ccccc2)CC(C)(C)N1,inactive
9,CCCc1ccc(OCC(=O)Nc2scc(-c3cccs3)c2C(=O)OC)cc1,"inconclusive: 0.794 µM [inhibitor, partial curve, poor fit]"
10,O=C(c1ccc2c(c1)N(Cc1ccc(F)cc1)CCS2)N1CCN(c2ccccc2)CC1,"inconclusive: 1.26 µM [inhibitor, partial curve, poor fit]"
11,Cc1ccc(C2c3c(oc4cc(C)c(C)cc4c3=O)C(=O)N2CCCN2CCOCC2)cc1 (stereo not drawn),"inconclusive: 0.199 µM [inhibitor, full curve, poor fit]"
12,COc1cc(C2C(C#N)=C(N)N(Nc3ccccc3)C3=C2C(=O)CC(C)(C)C3)ccc1OCc1cccc(F)c1 (stereo not drawn),"inconclusive: 7.94 µM [inhibitor, partial curve, poor fit]"
13,COc1ccc2oc(=O)c(-c3csc(Nc4cccc(O)c4)n3)cc2c1,"inconclusive: 35.5 µM [inhibitor, single point]"
14,N#CC(=C(O)COC(=O)Cc1c[nH]c2ccccc12)c1nc2ccccc2[nH]1,inactive
15,CN(C)S(=O)(=O)c1ccc2c(c1)Cc1cc(S(=O)(=O)N(C)C)ccc1-2,inactive
16,O=C(OCc1nc2ccccc2[n+]([O-])c1C(=O)c1ccccc1)c1cccnc1,inactive
17,CCOC(=O)C(C(=O)OCC)N(C#N)c1nc(N(C)C)nc(N(C)C)n1,"inconclusive: 35.5 µM [inhibitor, single point]"
18,CC1CCN(Cc2cc(=O)oc3cc4c(cc23)CCCC4)CC1,inactive
19,CCOCCCNC(=S)Nc1cc(OCC)c(NC(=O)c2ccco2)cc1OCC,inactive
20,COC(=O)N/N=C/c1cn(Cc2c(Cl)cccc2Cl)c2ccccc12,"inconclusive: 35.5 µM [inhibitor, single point]"
21,O=[N+]([O-])c1ccc(NCc2ccccc2)nc1,"inconclusive: 5.62 µM [inhibitor, single point]"
22,Cc1c(Cl)cccc1NC(=O)c1ccc(NC(=O)N2CCSc3ncccc32)cc1,"inconclusive: 2.51 µM [inhibitor, partial curve, poor fit]"
23,CCc1ccc(CCC(=O)Nc2nccs2)o1,inactive

row,Structure (SMILES),Potency
1,CCOc1ccccc1C(C(=O)NC1CCCC1)N(Cc1ccco1)C(=O)CNC(=O)c1ccco1 (stereo not drawn),"inconclusive: 22.4 µM [inhibitor, partial curve, poor fit]"
2,Cc1ccc(-c2[nH]nc(N)c2N=Nc2ccccc2C)cc1,"inconclusive: 35.5 µM [inhibitor, single point]"
3,O=C1NC(c2cc3c(cc2Cl)OCO3)Oc2ccccc21 (stereo not drawn),"inconclusive: 7.08 µM [inhibitor, partial curve]"
4,Cc1nnc(SCC(=O)c2ccc(Cl)cc2)n(N)c1=O,"inconclusive: 35.5 µM [inhibitor, single point]"
5,CC(C)OC(=O)N(C)c1ccc(C(O)(C(F)(F)F)C(F)(F)F)cc1,"inconclusive: 14.1 µM [inhibitor, single point]"
6,CCOc1ccc(NC(=O)CN(Cc2ccccc2)S(=O)(=O)c2ccc(Cl)cc2)cc1,inactive
7,Cc1cc(C)cc(NS(=O)(=O)c2ccc3c(c2)OCC(C(=O)N2CCCC2)O3)c1 (stereo not drawn),"inconclusive: 22.4 µM [inhibitor, single point]"
8,COc1ccc2nc3oc(C(=O)Nc4cccc(C(F)(F)F)c4)cc3cc2c1,inactive
9,CCOc1cc(/C=N/Nc2nc(N3CCCC3)nc(N3CCCC3)n2)ccc1O,"inconclusive: 3.55 µM [inhibitor, single point]"
10,CCN(CC)S(=O)(=O)c1cccc(C(=O)NCC(c2ccccc2)N(C)C)c1 (stereo not drawn),inactive
11,Cc1c(C2=CCN(S(=O)(=O)c3ccc(Br)cc3)CC2)c2ccccc2n1CC(=O)N1CCCC1,"inconclusive: 10 µM [inhibitor, partial curve, poor fit]"
12,Nc1c(C(=O)NCc2ccc(F)cc2)c2nc3ccccc3nc2n1CCCN1CCOCC1,"inconclusive: 14.1 µM [inhibitor, single point]"
13,CCCCn1c(=O)nc2n(-c3ccccc3C)c3ccccc3cc-2c1=O,"inconclusive: 0.398 µM [inhibitor, full curve, poor fit]"
14,C/C(=N\Nc1nc(C(C)(C)C)cs1)c1ccccc1,"inconclusive: 35.5 µM [inhibitor, single point]"
15,C/C(=N\NC(=O)c1cc(-c2ccc(C)s2)[nH]n1)c1ccco1,inactive
16,CC1CN(C(=O)N2CCC(C(=O)N3CCN(c4ccccc4)CC3)CC2)c2cc(Cl)ccc2O1 (stereo not drawn),"inconclusive: 8.91 µM [inhibitor, partial curve, poor fit]"
17,CCN(c1ccccc1)S(=O)(=O)c1ccc(NC(=S)NC(=O)c2cccs2)cc1,"inconclusive: 7.94 µM [inhibitor, partial curve]"
18,COc1cccc(C2NC(=O)NC(C)=C2C(=O)OCC2CCCCC2)c1 (stereo not drawn),inactive
19,Cc1ccc2[nH]c(C)cc(=S)c2c1,inactive
20,COc1ccc(OC)c(N(CC(=O)N2CCC(C)CC2)S(=O)(=O)c2ccccc2)c1,inactive
21,CCOc1cc2[nH]c(=O)n(CCCCC(=O)N3CCN(c4ccc(OC)cc4)CC3)c(=O)c2cc1OCC,inactive
22,CCOC(=O)C1=CCN(S(=O)(=O)c2ccccc2C)C1c1cccc(Br)c1 (stereo not drawn),"inconclusive: 11.2 µM [inhibitor, single point]"
23,CSc1cccc(Nc2cc(C(=O)NCCc3ccc(Cl)cc3)c3ccccc3n2)c1,active: 10 µM

row,Structure (SMILES),Potency
1,Cc1ccc(CNC(=O)CCc2c(C)c3ccc(O)c(C)c3oc2=O)cc1,inactive
2,CCS(=O)(=O)c1ncc(Cl)c(C(=O)Nc2ccc(S(=O)(=O)N3CCC(C)CC3)cc2)n1,active: 4.47 µM
3,Cc1[nH]c2ccccc2c1C(=O)COC(=O)CCS(=O)(=O)c1ccccc1Cl,"inconclusive: 22.4 µM [inhibitor, single point]"
4,O=C(Nc1ccccc1)Nc1ccc2snnc2c1,"inconclusive: 35.5 µM [inhibitor, single point]"
5,CCN(CC)C(=O)COc1ccc(/C=N/NC(=O)c2cc(-c3ccccc3OC)nc3ccccc23)cc1OC,inactive
6,COc1ccc(OCC(=O)NNC(=O)c2ccccn2)cc1,"inconclusive: 3.16 µM [inhibitor, partial curve]"
7,COc1ccc(C2/C=C\CN(C(=O)c3ccc(C)cc3)[C@H](Cc3ccccc3)C(=O)N2Cc2ccc(F)cc2)cc1 (stereo partly drawn),"inconclusive: 3.16 µM [inhibitor, full curve, poor fit]"
8,C=CCSc1nc(=O)n2ccc(C)cc2n1,inactive
9,CCCN1C(=O)N(c2cccc(C)c2)C(C)(O)CC1(C)C (stereo not drawn),"inconclusive: 35.5 µM [inhibitor, single point]"
10,Cc1ccc2c(CC(=O)Nc3ccc(S(=O)(=O)N4CCCCC4C)cc3)coc2c1 (stereo not drawn),"inconclusive: 12.6 µM [inhibitor, partial curve]"
11,Cc1ccc(CNC(=O)c2cccn2-c2nnc(N3CCCC3)s2)cc1,"inconclusive: 0.562 µM [inhibitor, full curve, poor fit]"
12,COc1cccc(NC(=O)CN2C(=O)CSc3ccc(S(=O)(=O)N4CCCC4)cc32)c1,"inconclusive: 3.98 µM [inhibitor, partial curve, poor fit]"
13,CCN(CC)S(=O)(=O)c1ccc(NC(=O)Nc2cccc(C(F)(F)F)c2)cc1,"inconclusive: 3.98 µM [inhibitor, partial curve, poor fit]"
14,O=C(NNc1ncc(C(F)(F)F)cc1Cl)c1c(Cl)cccc1Cl,"inconclusive: 35.5 µM [inhibitor, single point]"
15,Cc1ccc(SCC(=O)Nc2ccc(N3CCOCC3)cc2)cc1C,inactive
16,CCOc1ccccc1CNC(=O)c1ccc(N2Cc3ccccc3Oc3ncccc32)s1,"inconclusive: 14.1 µM [inhibitor, single point]"
17,O=C(NCCS(=O)(=O)N1CCN(c2ccccc2F)CC1)c1cccc(Br)c1,"inconclusive: 35.5 µM [inhibitor, single point]"
18,Cc1cc(F)ccc1N1CCC(N2CCN(C(C)C)C(CCO)C2)CC1 (stereo not drawn),inactive
19,C[C@H](CO)N1C[C@H](C)[C@@H](CN(C)C(=O)Nc2ccc(C(F)(F)F)cc2)Oc2ccc(NC(=O)Cc3ccccc3)cc2C1=O,"inconclusive: 35.5 µM [inhibitor, single point]"
20,CCCN1CCN(C(=O)Cn2c(-c3cccs3)cc3ccccc32)CC1,inactive
21,COc1ccc(-c2nnc3ccc(SC(C)C)nn23)cc1OC,"inconclusive: 35.5 µM [inhibitor, single point]"
22,O=C(NCc1ccco1)c1cc(-c2cccs2)nc2ccccc12,"inconclusive: 2.51 µM [inhibitor, partial curve]"
